In ChEMBL document CHEMBL4888484, “Replenishing the malaria drug discovery pipeline: Screening and hit evaluation of the MMV Hit Generation Library 1 (HGL1) against asexual blood stage Plasmodium falciparum ,using a nano luciferase reporter read-out” (2022):
About 540 (0.36%) of roughly 150,000 compounds showed an effect of 50% or more. This is one part of the list.

What follows are compounds tested on Plasmodium falciparum (assay: Primary screen in NF54 nanoGlo assay, in single point, at 2uM, 72h; a lower Z score goes with more inhibition). Settings: timepoint 72 hour.
Type: functional, Erythrocyte
`Nc1nc(COC(=O)CCc2ccc(Cl)cc2)nc(Nc2ccccc2)n1` was tested, and the “% Inhibition” value was 2% and the Z score was -0.33. For `CC(C)[C@H]1CCO[C@H]1C(=O)N1CCC(C)S(=O)(=O)CC1` (stereo partly specified), the “% Inhibition” value was 6% and the Z score was -1.09. With `CCN1CC(=O)N[C@H]2CN(C(=O)c3c[nH]c(=O)c(Cl)c3)CC[C@@H]2OCc2cccc(c2)Oc2cc(OC(C)C)cc(c2)C1=O` the “% Inhibition” value was -6% and the Z score was 1.09. In the case of `NCC1(c2nc3ccccc3s2)CC1`, the “% Inhibition” value is reported as 8% and the Z score is reported as -1.01. With `CN(C)c1cc(CCOCc2ccccc2)ncn1` the “% Inhibition” value was 0% and the Z score was 0.05. `Cc1ccc(Nc2nc(C(=O)NCc3ccc(C)o3)cs2)c(C)c1` was tested, and the “% Inhibition” value was -3% and the Z score was 0.32. For `CC[C@H]1c2cccn2CCN1C(=O)Cc1c(C)n[nH]c1C`, the “% Inhibition” value was 0% and the Z score was -0.01. In the case of `Cc1ncccc1C(=O)NCC(=O)N1CCCCCNC(=O)C[C@H]1c1ccccc1`, the “% Inhibition” value is reported as -16% and the Z score is reported as 2.11. With `Cn1cc(S(=O)(=O)N2CCCC2CC(O)c2ccco2)cn1` (stereo unspecified) the “% Inhibition” value was -13% and the Z score was 1.13. In the case of `COc1cc(C(=O)N2CC[C@](C)(O)[C@H](Cc3ccccc3)C2)ccn1`, the “% Inhibition” value is reported as -10% and the Z score is reported as 1.82. With `Cc1occc1C(=O)N(Cc1ccco1)C1CC1` the “% Inhibition” value was 1% and the Z score was -0.13. For `O=C(c1ccsc1)N1CC[C@H](CCOc2ccccc2)C1`, the “% Inhibition” value was -4% and the Z score was 0.66. `CN(C)Cc1cnc(CN2CCC[C@H](n3cncn3)C2)s1` was tested, and the “% Inhibition” value was -6% and the Z score was 0.93. For `Cc1noc(C)c1CS(=O)(=O)CC(=O)N1CCc2ccccc21`, the “% Inhibition” value was -11% and the Z score was 1.73. For `Cn1nc2nc(N3CCN(C(=O)[C@@H]4CCCO4)CC3)nc(-c3ccc(F)c(Cl)c3)c2c1N`, the “% Inhibition” value was -1% and the Z score was 0.1. For `CCN(Cc1cnc(C)cn1)Cc1ccc(C)o1`, the “% Inhibition” value was 7% and the Z score was -0.88. In the case of `O=C1CCCN1CC(=O)N1CCO[C@@H](CC(c2ccccc2)c2ccccc2)C1`, the “% Inhibition” value is reported as -5% and the Z score is reported as 0.71. For `Cc1onc(-c2ccccc2)c1C(=O)N1CC[C@H](Cc2ccc(CO)cc2)C1`, the “% Inhibition” value was -7% and the Z score was 1.04. With `COc1ccccc1OCCCN1C(=O)[C@](O)(CC(C)=O)c2cccc(C)c21` the “% Inhibition” value was -2% and the Z score was 0.25. For `CC(C)CCC(=O)N1CCC(N2C(=O)CC[C@H]2C(=O)NCc2ccccc2)CC1`, the “% Inhibition” value was -6% and the Z score was 0.96. For `CCc1nnc(CN[C@@H](C(=O)OC(C)(C)C)c2ccccc2)o1`, the “% Inhibition” value was -4% and the Z score was 0.41. In the case of `Cc1noc(C)c1C(=O)Nc1sc2c(c1C#N)CC[C@H](C)C2`, the “% Inhibition” value is reported as -11% and the Z score is reported as 1.57. With `CCOC(=O)c1c(C)[nH]c(C(=O)OC)c1CCC(=O)OC` the “% Inhibition” value was -9% and the Z score was 1.59. In the case of `[O-]c1c(-c2ccccc2)sc2c3ccccc3c(-c3ccc(Cl)cc3)n[n+]12`, the “% Inhibition” value is reported as -9% and the Z score is reported as 1.14. In the case of `CS(=O)(=O)[C@H]1CCN(C(=O)NCCc2ccc(Cl)s2)C1`, the “% Inhibition” value is reported as -12% and the Z score is reported as 1.8. In the case of `COc1ccc(NC(=O)Cn2cc(C(=O)N3CCCC3)c(=O)c3ccc(C)nc32)cc1`, the “% Inhibition” value is reported as -6% and the Z score is reported as 0.83. In the case of `CCCc1ncncc1C(=O)N1CC[C@]2(OC)CC[C@H](O)C[C@H]12`, the “% Inhibition” value is reported as 2% and the Z score is reported as -0.25. `CC1CCC(N2CCN3C(=O)c4ccccc4OCC[C@@H]4CC[C@@H](NC(=O)NC(C)C)[C@@H](CNC(=O)[C@@H]3C2)O4)CC1` (stereo partly specified) was tested, and the “% Inhibition” value was -9% and the Z score was 1.32. With `CCCc1cc(C(=O)N2CC[C@@H]3OCc4cccc(c4)Oc4ccc(cc4)CCC(=O)N(CCCO)CC(=O)N[C@H]3C2)[nH]n1` the “% Inhibition” value was -1% and the Z score was 0.22. In the case of `Cc1cnn(-c2ccncc2NS(C)(=O)=O)c1`, the “% Inhibition” value is reported as 33% and the Z score is reported as -4.45. `Cc1c[nH]c(C2(NC(=O)[C@@H]3C[C@]3(C)c3ccccc3)CCOCC2)n1` was tested, and the “% Inhibition” value was -5% and the Z score was 0.56. In the case of `CN(C(=O)C1C(C(=O)O)C1(C)C)c1ccccc1OC(F)F` (stereo unspecified), the “% Inhibition” value is reported as 36% and the Z score is reported as -4.11. `Cc1nc(CNC(=O)C2CCC(C(F)(F)F)NC2=O)sc1C` (stereo unspecified) was tested, and the “% Inhibition” value was 2% and the Z score was -0.24. With `CS(=O)(=O)N[C@H]1CCN(Cc2coc3ccccc23)C1` the “% Inhibition” value was -12% and the Z score was 1.74. In the case of `CCc1[nH]c2ccc(CNC(=O)[C@H]3CCc4nn(C)c(=O)n4C3)cc2c1C`, the “% Inhibition” value is reported as 7% and the Z score is reported as -0.95. With `CN(Cc1ccc(-n2cccn2)cc1)C(=O)C[C@H]1COCCN1` the “% Inhibition” value was 0% and the Z score was -0.01. With `O=c1cc(-c2ccccc2)n(S(=O)(=O)c2ccccc2)o1` the “% Inhibition” value was 38% and the Z score was -4.94. `CNS(=O)(=O)CCNc1cc(OC)ncn1` was tested, and the “% Inhibition” value was -3% and the Z score was 0.47. With `CC(C)(C)OC(=O)[C@]1(NC(=O)c2cc(F)ccc2Cl)CCOC1` the “% Inhibition” value was 5% and the Z score was -0.48. In the case of `NC(=O)N1CCCN(C(=O)c2cc3c(s2)CCCCCC3)CC1`, the “% Inhibition” value is reported as 7% and the Z score is reported as -0.75. With `Cc1cc2c(NC(=O)N3CCN[C@@H]4CS(=O)(=O)C[C@@H]43)cccc2nn1` the “% Inhibition” value was -7% and the Z score was 0.91. With `CCN1C[C@H](CN(C)C(=O)c2ccc(NC(=O)c3cccs3)cc2)Oc2ccccc21` the “% Inhibition” value was 31% and the Z score was -3.98. With `O=C(Nc1ccc(Br)cc1)c1c(F)c(F)c2c(c1F)N(Cc1ccccc1)CCS2(=O)=O` the “% Inhibition” value was -1% and the Z score was 0.19. For `CN1CCN([C@H]2CCN(c3nccc4ccccc34)C[C@H]2CCC(=O)O)CC1`, the “% Inhibition” value was 1% and the Z score was -0.12. In the case of `N#CCCCS(=O)(=O)NCCc1cc(C(F)(F)F)ccn1`, the “% Inhibition” value is reported as -8% and the Z score is reported as 0.83. In the case of `CC1(C)CNC(=O)N1Cc1ccc(Cl)cc1`, the “% Inhibition” value is reported as 7% and the Z score is reported as -1.01. For `Cc1ccc(C(=O)N[C@H]2CCN(C3CCCCC3)C2=O)cc1O`, the “% Inhibition” value was -8% and the Z score was 0.8. With `COc1c2ccc(C(=O)N3CCOCC3)cc2nn1C` the “% Inhibition” value was -5% and the Z score was 0.92. With `COc1ccc(N[C@H]2CCCN(C3CCN(c4ccc(F)cc4C)CC3)C2)cc1OC` the “% Inhibition” value was -14% and the Z score was 1.26. With `Cc1c(C(=O)N(C)CC2(O)CCOCC2)nnn1-c1cccc2cccnc12` the “% Inhibition” value was -12% and the Z score was 2.23. With `c1ccc(-c2nnc(-c3ccccn3)o2)cc1` the “% Inhibition” value was -14% and the Z score was 2.45. With `O=C(c1cccc(-n2cccn2)n1)N1CCC[C@H]1c1cccc(F)c1` the “% Inhibition” value was -19% and the Z score was 1.65. With `Cc1nc(=O)[nH]c(C)c1CCC(=O)Nc1nc(C(F)(F)F)c[nH]1` the “% Inhibition” value was -7% and the Z score was 0.78. In the case of `Cc1nc(CC(N)=NO[C@H]2CCCc3cccnc32)cs1`, the “% Inhibition” value is reported as -4% and the Z score is reported as 0.94. `O=C(c1ccc2c(c1)ncn2CCO)N1C[C@H]2CC[C@@H](C1)N(CC1CC1)C2` was tested, and the “% Inhibition” value was -13% and the Z score was 1.96. `Cc1onc(C(=O)N2CCC(CCc3noc(N(C)C)n3)CC2)c1CN1CCCCC1` was tested, and the “% Inhibition” value was -4% and the Z score was 0.69. With `O=C(OCc1nc(-c2ccccc2)no1)c1nn(-c2ccc(F)cc2)cc1O` the “% Inhibition” value was 7% and the Z score was -0.92. In the case of `CCOc1cc(N2CCOCC2)c(OCC)cc1N[C@@H](C)C(=O)Nc1cc(Cl)cc(Cl)c1`, the “% Inhibition” value is reported as 2% and the Z score is reported as -0.22. `O=C(O)Cn1c(Cc2ccccc2)nc2ccccc21` was tested, and the “% Inhibition” value was 9% and the Z score was -1.11. With `COCc1c(-c2cccc(F)c2)c2cc3c(cc2[nH]c1=O)OCCO3` the “% Inhibition” value was 8% and the Z score was -0.97. With `COCC(=O)N1CCc2ncnc(N3CCC[C@H](C(N)=O)C3)c2CC1` the “% Inhibition” value was 10% and the Z score was -2.04. `CN(C)CCN(C[C@H]1CCCO1)C(=O)c1cccc(-c2cc(N)ncn2)c1` was tested, and the “% Inhibition” value was 6% and the Z score was -0.78. In the case of `Nc1nc(-c2ncnn2CC(F)(F)F)cs1`, the “% Inhibition” value is reported as -23% and the Z score is reported as 2.09. For `Cc1c(Cc2ccccc2)c(=O)n2nc(-c3ccccc3)nc2n1CC(=O)NCc1ccccc1F`, the “% Inhibition” value was 11% and the Z score was -1.42. For `Cc1cccc(CNS(=O)(=O)c2cc(C(=O)N3CCCCCC3)cs2)c1`, the “% Inhibition” value was -8% and the Z score was 1.5. `Cc1ccc(S(=O)(=O)N2CC(OC[C@H]3CCOC3)C2)cc1Cl` was tested, and the “% Inhibition” value was -22% and the Z score was 3.41. With `CCCn1cc(C(=O)N(C)Cc2ccc(C)o2)c(C)n1` the “% Inhibition” value was 0% and the Z score was -0.08. For `COc1ccc(-c2noc(C(C)OCC3CCCCO3)n2)cc1OC` (stereo unspecified), the “% Inhibition” value was -8% and the Z score was 1.09. In the case of `CN1CCN(c2ccccc2NC(=O)c2cnn(C)c2)CC1`, the “% Inhibition” value is reported as 0% and the Z score is reported as 0.05. With `CC12CC(CN1c1ccc(S(C)(=O)=O)cc1)C2` the “% Inhibition” value was -12% and the Z score was 1.06. With `CN(CCC(=O)N(C)C)Cc1nccn1CC(F)(F)F` the “% Inhibition” value was -15% and the Z score was 2.75. In the case of `O=C(c1ccsc1)N1CCN(C(=O)c2ccc3nccn3c2)CC1`, the “% Inhibition” value is reported as -13% and the Z score is reported as 1.99. `CC1C(N(C)C)CCN1C(=O)c1ccn(C(C)C)n1` (stereo unspecified) was tested, and the “% Inhibition” value was -18% and the Z score was 1.98. With `Cc1nn(C)c(Cl)c1Cc1noc(C[C@H](C)n2ccnc2)n1` the “% Inhibition” value was -4% and the Z score was 0.58. In the case of `Cc1nc(CS(=O)(=O)CC2CCCCC2)sc1C`, the “% Inhibition” value is reported as -11% and the Z score is reported as 1.75. In the case of `COc1cccc(N2CCN(C(=O)[C@H](C)N3Cc4ccccc4C3=O)CC2)c1`, the “% Inhibition” value is reported as -14% and the Z score is reported as 1.79. With `CCS(=O)(=O)N1CCC(C(=O)N2CCC[C@H](C(C)C)CC2)CC1` the “% Inhibition” value was -1% and the Z score was 0.08. `Cc1cc(CCNC(=O)N2CC3(CC=CC3)[C@@H]2C(C)C)on1` was tested, and the “% Inhibition” value was -17% and the Z score was 1.52. For `Cc1ccccc1S(=O)(=O)N(CCCc1ccccc1)CC(=O)N1CCNCC1`, the “% Inhibition” value was 3% and the Z score was -0.34. With `Cc1ccc(Oc2cccc(NC(=O)c3ccc(F)cc3F)c2)nn1` the “% Inhibition” value was 12% and the Z score was -1.6. For `COc1ccc(-c2coc3ccc(OCC(N)=O)cc23)cc1`, the “% Inhibition” value was -25% and the Z score was 3.26. `Cc1cc(C)c(CN[C@@H](C)CC(N)=O)c(C)c1` was tested, and the “% Inhibition” value was 2% and the Z score was -0.25. With `O=C1c2ccccc2C(=O)N1C[C@H](O)COc1cccc2ccccc12` the “% Inhibition” value was -11% and the Z score was 1.42.
